The text below walks through data of paper PMC5892938.

The list shows a part of the results. At the low end of the ranking the order means little.

The target of this test is GST-SBP-SLBP (stem-loop binding protein) (UniProt Q14493). The test can be described thus: targeted RNA Bind-n-Seq.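 Further: DESeq read counts versus GST-SBP nonspecific binding control pulldown.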 As to conditions: RBNS binding buffer: 25 mM Tris pH 7.5, 150 mM KCl, 3 mM MgCl2, 0.1% Tween, 0.5 mg/mL BSA, 1 mM DTT; 27 nM protein, 750 pM RNA pool; temperature not stated; high values mean tight binding.
For the sequence “GGUCACGUCUCAAUCAACUCAUCCCCAGGAGUUUGCUCCUGUAUAUUCAACAGCUCGCAGUCAAG”, the binding signal (log2 fold change) came out at 0.204.
With “GGUCACGUCUCAAUCAACUCAACUCCAGGAGUUUUCUCCUGCAAUUUCAACAGCUCGCAGUCAAG”, the binding signal (log2 fold change) is -0.0321.
On to “GGUCACGUCUCAAUCAACUCAUCGGCCAGGGAAACCCCUGGGAAUUUCAACAGCUCGCAGUCAAG”, for which the binding signal (log2 fold change) is -0.0485.
As for “GGUCACGUCUCAAUCAACUCUAUCUCCAGGGAAAUCCCUGGUAUUUUCAACAGCUCGCAGUCAAG”, the binding signal (log2 fold change) is -0.184.
Turning to “GGUCACGUCUCAAUCAACUCUUCUCCAGGAGUUUCCUCCUGUUAUUUCAACAGCUCGCAGUCAAG”, the binding signal (log2 fold change) is -0.0232.
As for “GGUCACGUCUCAAUCAACUCUACUUCCAGGGAAAGCCCUGGUAAUCUCAACAGCUCGCAGUCAAG”, the binding signal (log2 fold change) is -0.214.
Regarding “GGUCACGUCUCAAUCAACUCAUGUCCAGGAGUUUCCUCCUGUAAUCUCAACAGCUCGCAGUCAAG”, the binding signal (log2 fold change) is -0.0512.
For the sequence “GGUCACGUCUCAAUCAACUCAUGUCCAGGAGUUUCCUCCUGCUAAUUCAACAGCUCGCAGUCAAG”, the binding signal (log2 fold change) was -0.0153.
Take “GGUCACGUCUCAAUCAACUCAAUUUCCAGGGAAAUCCCUGGCAUAGUCAACAGCUCGCAGUCAAG”: the binding signal (log2 fold change) is -0.0357.
The same measure for “GGUCACGUCUCAAUCAACUCAUUCCCCAGGGAAACCCCUGGCAAACUCAACAGCUCGCAGUCAAG”: -0.031.
For “GGUCACGUCUCAAUCAACUCACUCGAGGGGGGGAAAACCCCUUUACCCUCACACUCAACAGCUCGCAGUCAAG”, the binding signal (log2 fold change) is 0.0789.
As to “GGUCACGUCUCAAUCAACUCUCCAGAGGGGGGGAAAACCCCUUUACCCUCGAAUUCAACAGCUCGCAGUCAAG”, the binding signal (log2 fold change) was 0.0484.
The same measure for “GGUCACGUCUCAAUCAACUCCCUCGAGGGGGGGAAAACCCCUUUACCCUCUUAUUCAACAGCUCGCAGUCAAG”: 0.102; for “GGUCACGUCUCAAUCAACUCUUUUCCCAGGGAAAGCCCUGGUAUUCUCAACAGCUCGCAGUCAAG”: 0.000225; for “GGUCACGUCUCAAUCAACUCAACUUCAGGAGUUUACUCCUGCAAACUCAACAGCUCGCAGUCAAG”: -0.0233.
The figure for “GGUCACGUCUCAAUCAACUCUUCUUCCAGGGAAACCCCUGGUUUACUCAACAGCUCGCAGUCAAG” is -0.207; for “GGUCACGUCUCAAUCAACUCUAUCUCAGGAGUUUACUCCUGUUUACUCAACAGCUCGCAGUCAAG” it is -0.103.
For “GGUCACGUCUCAAUCAACUCAUUCUCCAGGGAAAACCCUGGCUAUCUCAACAGCUCGCAGUCAAG”, the binding signal (log2 fold change) is 0.0805.
For “GGUCACGUCUCAAUCAACUCUUCCCCCAGGGAAAACCCUGGCUUUCUCAACAGCUCGCAGUCAAG”, the binding signal (log2 fold change) was found to be 0.0728.
The figure for “GGUCACGUCUCAAUCAACUCUACUUCAGGAGUUUUCUCCUGUUAUUUCAACAGCUCGCAGUCAAG” is -0.086; for “GGUCACGUCUCAAUCAACUCAAUCUCCAGGGAAACCCCUGGCAUUCUCAACAGCUCGCAGUCAAG” it is 0.0212; for “GGUCACGUCUCAAUCAACUCAAUUUCCAGGGAAAGCCCUGGUAUAUUCAACAGCUCGCAGUCAAG” it is -0.000548.
Consider “GGUCACGUCUCAAUCAACUCAUCCUCAGGAGUUUCCUCCUGCUAACUCAACAGCUCGCAGUCAAG”, for which the binding signal (log2 fold change) stood at 0.14.
As to “GGUCACGUCUCAAUCAACUCAAUCGAGGGGGGGAAAACCCCUUUACCCUCAUCGUCAACAGCUCGCAGUCAAG”, the binding signal (log2 fold change) was -0.236.
As to “GGUCACGUCUCAAUCAACUCUACUCCCAGGGAAACCCCUGGUUAAUUCAACAGCUCGCAGUCAAG”, the binding signal (log2 fold change) worked out at 0.28.
The same measure for “GGUCACGUCUCAAUCAACUCUACUCCCAGGGAAAACCCUGGUUUAUUCAACAGCUCGCAGUCAAG”: -0.194; for “GGUCACGUCUCAAUCAACUCAUUUUCAGGAGUUUUCUCCUGUUAUUUCAACAGCUCGCAGUCAAG”: -0.0528; for “GGUCACGUCUCAAUCAACUCAGUUCCAGGAGUUUCCUCCUGCUUUUUCAACAGCUCGCAGUCAAG”: -0.0811.
Consider “GGUCACGUCUCAAUCAACUCUUCCCCCAGGGAAACCCCUGGCUAUGUCAACAGCUCGCAGUCAAG”, for which the binding signal (log2 fold change) is -0.0705.
“GGUCACGUCUCAAUCAACUCAUCGCCAGGAGUUUUCUCCUGUUAACUCAACAGCUCGCAGUCAAG”: the binding signal (log2 fold change) is 0.0248.
As for “GGUCACGUCUCAAUCAACUCACUAGAGGGGGGGAAAACCCCUUUGCCCUCAAUCUCAACAGCUCGCAGUCAAG”, the binding signal (log2 fold change) was 0.124.
With “GGUCACGUCUCAAUCAACUCUUCUCCCAGGGAAAGCCCUGGUAAUUUCAACAGCUCGCAGUCAAG”, the binding signal (log2 fold change) worked out at 0.124.
For the sequence “GGUCACGUCUCAAUCAACUCAAUCUCCAGGGAAAACCCUGGUAAAUUCAACAGCUCGCAGUCAAG”, the binding signal (log2 fold change) is 0.0922.
On to “GGUCACGUCUCAAUCAACUCAACUUCAGGAGUUUGCUCCUGUUUUCUCAACAGCUCGCAGUCAAG”, for which the binding signal (log2 fold change) came to 0.0673.
As to “GGUCACGUCUCAAUCAACUCUAACGAGGGGGGGAAAACCCCUUUGCCCUCACUUUCAACAGCUCGCAGUCAAG”, the binding signal (log2 fold change) was -0.0105.
On to “GGUCACGUCUCAAUCAACUCAUAAGAGGGGGGGAAAACCCCUUUGCCCUCCAAAUCAACAGCUCGCAGUCAAG”, for which the binding signal (log2 fold change) was -0.0149.
The figure for “GGUCACGUCUCAAUCAACUCUUCGUCCAGGGAAAGCCCUGGCUAUUUCAACAGCUCGCAGUCAAG” is -0.0464.
